{"source": "PubChem BioAssay AID504706", "about": "(National Center for Advancing Translational Sciences (NCATS), 2011)", "note": "In all, about 320,000 compounds went through this assay and about 200 (0.062%) were called active. This list was built around the results that the source calls inconclusive (neither active nor inactive); the mix of calls is not that of the screen. Calls come from the whole dose curve; as a rule, active = well fitted activation curve with a large enough effect; inconclusive = small, poorly fitted or top-dose-only effect; inactive = no such curve, though single readings can be large or run the other way. No potency is given beside an inconclusive call; the fits are too rough. Potency is the fitted concentration of half-maximal effect; tags give direction and shape of the fitted curve."}
{"assay": "qHTS assay for re-activators of p53 using a Luc reporter; note: nearly all actives have a fitted effect of over 45% in size; for activity change, positive = activation: % of control where 0% means no effect", "details": "H1299 p53-A138V BP100-luciferase reporter, luminescence, 24 h; series mostly up to 92.2 µM; activity change, positive = activation: at the top concentration", "summary_of_the_method": "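H1299 (p53-null), stable ts p53-A138V + BP100-Luc; 1000 cells/well, Opti-MEM/10% FBS; cpd 4 pt, 1:5; 24 h, 37 deg C, 5% CO2; detection reagent 10 min RT; luminescence.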"}
{"smiles": "Cc1cccc(NC(=O)CCCN2C(=O)c3cccc4cccc(c34)C2=O)c1", "Potency": "inconclusive [activator, single point]"}
{"smiles": "COc1ccc2c(c1)C(=O)CC(c1ccc3c(c1)OCCO3)O2", "note": "(centres undefined)", "Potency": "inconclusive [activator, single point]"}
{"smiles": "COc1ccc(-c2cn3nc(C)c(C)nc3n2)cc1OC", "Potency": "inconclusive [activator, partial curve, poor fit]"}
{"smiles": "COc1ccc(-c2csc(Nc3cccc(C)n3)n2)cc1C", "Potency": "inconclusive [activator, full curve, poor fit]"}
{"smiles": "Cc1ccc(N)cc1O", "Potency": "inconclusive [activator, single point]"}
{"smiles": "Cc1cc(C)nc(Sc2ccc3nnnn3n2)n1", "Potency": "inconclusive [activator, single point]"}
{"smiles": "Cc1nc(C)c(C(=O)OCC(=O)Nc2ccccc2)s1", "Potency": "inconclusive [activator, full curve, poor fit]"}
{"smiles": "COC(C(=O)N1CCC(CCC(=O)Nc2ccccc2)CC1)c1ccccc1", "note": "(centres undefined)", "Potency": "inconclusive [activator, partial curve, poor fit]"}
{"smiles": "Cc1ccc(-c2nn(-c3ccccc3)cc2CO)o1", "Potency": "inconclusive [activator, partial curve, poor fit]"}
{"smiles": "O=C(Nc1ccc(Cl)c([N+](=O)[O-])c1)c1ccc2c(c1)OCCO2", "activity change, positive = activation": "inactive: 28.9%"}
{"smiles": "CC(=O)c1nc2ccccc2n1S(=O)(=O)c1ccc(C)cc1", "Potency": "inconclusive [activator, single point]"}
{"smiles": "O=C(CCNC(=O)c1ccccc1)NCc1ccccc1F", "Potency": "inconclusive [activator, full curve, poor fit]"}
{"smiles": "COC(=O)CSc1nc2cc3c(cc2cc1C#N)OCO3", "Potency": "inconclusive [activator, partial curve, poor fit]"}
{"smiles": "Cc1ccc2oc(=O)c(/C=C(\\O)c3ccco3)nc2c1", "Potency": "inconclusive [activator, partial curve, poor fit]"}
{"smiles": "CCS(=O)(=O)n1nc(-c2ccc(Cl)cc2)nc1SC", "Potency": "inconclusive [activator, single point]"}
{"smiles": "O=C(Nc1ccccc1F)c1cc2c(s1)-c1ccccc1S(=O)(=O)C2", "Potency": "inconclusive [activator, single point]"}
{"smiles": "CCCCn1c(N)c(N(CCOC)C(=O)COC(=O)COc2cc(C)c(Cl)cc2C(C)C)c(=O)[nH]c1=O", "activity change, positive = activation": "inactive: 6.46%"}
{"smiles": "Cc1cc(C(=O)NCc2cccs2)ccc1[N+](=O)[O-]", "Potency": "inconclusive [activator, full curve, poor fit]"}
{"smiles": "Oc1c(N=Nc2ccccn2)ccc2ccccc12", "activity change, positive = activation": "inactive: 2.54%"}
{"smiles": "O=C(NCCc1cn2ccsc2n1)c1cccs1", "Potency": "inconclusive [activator, full curve, poor fit]"}
{"smiles": "N#Cc1c(-c2cccs2)cc(-c2ccccn2)nc1N", "Potency": "inconclusive [activator, single point]"}
{"smiles": "Clc1ccc(-c2nnc(-c3ccco3)o2)cc1", "Potency": "inconclusive [activator, full curve]"}
{"smiles": "COc1cc(OC)c(NC(=O)CC(=O)Nc2cc(Cl)c(OC)cc2OC)cc1Cl", "Potency": "inconclusive [activator, single point]"}
{"smiles": "O=C(/C=C/c1ccco1)c1ccc(NC(=O)C23CC4CC(CC(C4)C2)C3)cc1", "Potency": "inconclusive [activator, partial curve, poor fit]"}
{"smiles": "Oc1ccc(Cl)cc1/C=C/c1ccc2cccc(O)c2n1", "Potency": "inconclusive [activator, single point]"}
{"smiles": "CCOC(=O)C(Cc1ccccc1)NC(=O)CCc1nnc2ccc(N3CCOCC3)nn12", "note": "(centres undefined)", "Potency": "inconclusive [activator, partial curve, poor fit]"}
{"smiles": "O=C(O)c1ccc(/C=C/c2ccc3cccc(O)c3n2)cc1", "Potency": "inconclusive [activator, partial curve, poor fit]"}
{"smiles": "Cc1ccc(/C=C/C(=O)NCCCc2ccccc2)cc1", "Potency": "inconclusive [activator, partial curve, poor fit]"}
{"smiles": "CCc1ccc(NC(=O)Nc2cccs2)cc1", "Potency": "inconclusive [activator, partial curve, poor fit]"}
{"smiles": "C[C@@H]1C[C@H](O)c2cc(Cl)ccc2N1", "activity change, positive = activation": "inactive: -2%"}
{"smiles": "COc1ccc2c(c1OC)C(=O)N(c1cccc(C(F)(F)F)c1)C2", "Potency": "inconclusive [activator, partial curve, poor fit]"}
{"smiles": "Fc1ccccc1Nc1nc2ccccc2n2nnnc12", "Potency": "inconclusive [activator, partial curve, poor fit]"}
{"smiles": "CCn1nc(CC(C)C)cc1C(=O)N1CCCC(Nc2ccc(F)cc2)C1", "note": "(centres undefined)", "activity change, positive = activation": "inactive: 0.55%"}
{"smiles": "Cc1ccc(NC(=O)CCNC(=O)c2ccc(Cl)cc2)nc1", "Potency": "inconclusive [activator, full curve, poor fit]"}
{"smiles": "S=C(NCCc1ccc(Cl)cc1)NC1CCCCC1", "Potency": "inconclusive [activator, full curve, poor fit]"}
{"smiles": "Cc1c(C(=O)NCCc2ccc(Cl)cc2)sc2nc3n(c(=O)c12)CCC3", "Potency": "inconclusive [activator, single point]"}
{"smiles": "Cc1ccccc1Nc1nnc(SCC(=O)NC(=O)Nc2ccc3c(c2)OCCO3)s1", "Potency": "inconclusive [activator, full curve]"}
{"smiles": "Cc1ccc(S(=O)(=O)NCc2ccc(C(=O)NC3CCCCC3)cc2)cc1", "activity change, positive = activation": "inactive: -0.759%"}
{"smiles": "Cc1nc2c(-c3ccccc3)c(C)nn2c(C)c1CCC(=O)N1CCOCC1", "activity change, positive = activation": "inactive: -13.8%"}
{"smiles": "CN(C)c1cc(O)c(C(=S)Nc2ccccc2)c(N(C)C)c1", "activity change, positive = activation": "inactive: 6.32%"}
{"smiles": "C[n+]1ccc(/C=C/c2ccccc2O)c2ccccc21", "activity change, positive = activation": "inactive: -3.84%"}
{"smiles": "O=C(/C=C/c1ccc(Br)cc1)c1ccco1", "Potency": "inconclusive [activator, partial curve, poor fit]"}
{"smiles": "O=C(O)CCN1C(=O)c2ccc(Oc3ccc([N+](=O)[O-])cc3)cc2C1=O", "Potency": "inconclusive [activator, single point]"}
{"smiles": "Clc1cccc(/C=N/Nc2nc(Cl)nc3ccccc23)c1", "Potency": "inconclusive [activator, single point]"}
{"smiles": "CNC(=S)NCCC(c1ccccc1)c1ccccc1", "activity change, positive = activation": "inactive: 8.6%"}
{"smiles": "CCCc1nc2oc3c(N4CCNCC4)ncnc3c2c2c1CCCC2", "Potency": "inconclusive [activator, partial curve, poor fit]"}
{"smiles": "CCOC(=O)c1c(NC(=O)c2nn(CC)cc2Br)c(C#N)nn1-c1ccccc1", "Potency": "inconclusive [activator, single point]"}
{"smiles": "CCOC(=O)c1cnc2c(N=Nc3ccccc3)c(N)nn2c1N", "Potency": "inconclusive [activator, partial curve, poor fit]"}
{"smiles": "Cn1nc(-c2ccc(Cl)cc2)c2cc(C(=O)NC3CC3)sc21", "activity change, positive = activation": "inactive: 0.662%"}
{"smiles": "O=C(Nc1ncccc1O)c1ccc2c(c1)OCCO2", "Potency": "inconclusive [activator, partial curve, poor fit]"}
{"smiles": "O=S(=O)(Cc1cc(-c2ccc(Cl)cc2)no1)c1ccccc1", "Potency": "inconclusive [activator, partial curve, poor fit]"}
{"smiles": "CCC(C)C(=O)N1CCCC(c2nc(-c3cccs3)no2)C1", "note": "(centres undefined)", "Potency": "inconclusive [activator, partial curve, poor fit]"}
{"smiles": "c1ccc2[nH]c(CSc3ncnc4c3oc3ccccc34)nc2c1", "activity change, positive = activation": "inactive: 10.4%"}
{"smiles": "Cc1cccc(-n2cnc(C(=O)NNC(=S)Nc3ccc(Cl)cc3)c2)n1", "Potency": "inconclusive [activator, single point]"}
{"smiles": "COc1ccc(/C=C2\\SC(=O)N(CCC(=O)NCCCn3ccnc3)C2=O)cc1", "Potency": "inconclusive [activator, partial curve, poor fit]"}
{"smiles": "COc1ccccc1Nc1nc(C2(C)CCC(=O)O2)cs1", "note": "(centres undefined)", "Potency": "inconclusive [activator, partial curve, poor fit]"}
{"smiles": "O=C(CSc1ccccc1)Nc1ccc2sccc2c1", "Potency": "inconclusive [activator, partial curve, poor fit]"}
{"smiles": "S=c1[nH]nc(-c2ccc(Cl)cc2)n1-c1cccnc1", "activity change, positive = activation": "inactive: -3.69%"}
{"smiles": "O=c1cc(NCc2ccco2)c2ccccc2o1", "Potency": "inconclusive [activator, single point]"}
{"smiles": "CN(CCCN1CCOCC1)C(=O)c1ccc2nc(Cc3cccc(Cl)c3)oc2c1", "activity change, positive = activation": "inactive: -3.98%"}
{"smiles": "CC1CCc2sc(C(=O)OCC(=O)NC(C)C)cc2C1", "note": "(centres undefined)", "Potency": "inconclusive [activator, single point]"}
{"smiles": "CCOc1ccc(-c2nc(-c3cccnc3)no2)cc1", "Potency": "inconclusive [activator, partial curve, poor fit]"}
{"smiles": "O=C(CC1CCCC1)Nc1ccc(Br)cc1", "Potency": "inconclusive [activator, full curve, poor fit]"}
{"smiles": "O=C(COC(=O)c1ccc2ncsc2c1)NCc1ccc(F)cc1", "Potency": "inconclusive [activator, partial curve, poor fit]"}
{"smiles": "N/C(=N\\OC(=O)Cc1cccs1)c1ccccc1", "activity change, positive = activation": "inactive: 24.1%"}
{"smiles": "CCOC(=O)C1CN(S(=O)(=O)c2ccccc2)CCN1S(=O)(=O)c1ccccc1", "note": "(centres undefined)", "activity change, positive = activation": "inactive: -4.59%"}
{"smiles": "O=C(COC(=O)C1CC1)Nc1ccc(N=Nc2ccccc2)cc1", "Potency": "inconclusive [activator, partial curve, poor fit]"}
{"smiles": "COc1cccc(N2C(=O)CC(c3c[nH]c4ccccc34)C2=O)c1", "note": "(centres undefined)", "activity change, positive = activation": "inactive: 7.54%"}
{"smiles": "N#Cc1c(NC(=O)c2ccccc2)sc2c1CCCCC2", "Potency": "inconclusive [activator, full curve, poor fit]"}
